# Data: PubChem BioAssay AID1345083 (National Center for Advancing Translational Sciences (NCATS), 2018)
# Hit rate of the full screen: of about 94,000 compounds, about 6,200 (6.6%) were called active. Inconclusive results, whose numbers are uncertain, are shown with a selection of clear calls. Calls follow the shape of the dose curve; as a rule, active = well fitted inhibition curve with a large enough effect; inconclusive = small, poorly fitted or top-dose-only effect; inactive = flat fitted curve, though single readings scatter. Potencies beside an inconclusive call are fits to weak or partial responses and may not hold up.
# Test: Cytotoxic Profiling in HEK 293 Cell Line of Diverse Libraries Using Quantitative High-Throughput Screening; also: nearly all actives have a fitted effect of over 60% in size
# Conditions: HEK 293 viability, ATP luminescence (CellTiter-Glo), 48-72 h; activity change, negative = cytotoxicity: at 115 µM (top of the series) unless noted; series mostly up to 115 µM
# Procedure, shortened: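 Viability of HEK 293 cells, plated at 250 cells/well, was judged by cellular ATP after compound treatment for 48 or 72 hr. Luminescence was imaged 10 min after CellTiter-Glo addition at room temperature.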
# % is scaled to controls: 0 for no effect and ±100 for the full control effect; potency is read from the fitted curve at half-maximal effect; tags tell the direction and shape of the fitted curve.
SMILES,outcome,Potency,"activity change, negative = cytotoxicity"
COCC(=O)N1CCCC1C(=O)N1CCCC1c1nc2ccncc2[nH]1 (configuration not stated),inactive,–,–
Cc1ncsc1CN1CCC2(CC1)c1[nH]c3ccccc3c1CCN2C,–,"inconclusive: 50.1 µM [inhibitor, partial curve, poor fit]",–
Cc1cccc(CNC(=O)C2CC(c3ccc(F)c(C)c3)CN(C(=O)c3ccccc3)C2)c1 (configuration not stated),–,active: 39.8 µM,–
CCc1ccc(CN2CCC(CNC(=O)c3ccc(C)nc3)C2)nc1 (configuration not stated),–,"inconclusive: 20 µM [inhibitor, full curve, poor fit]",–
CC(C)CCC(=O)N[C@@H]1CN(Cc2ccncc2)C[C@H]1CN(C)C,–,"inconclusive: 50.1 µM [inhibitor, partial curve, poor fit]",–
COC(=O)[C@@H]1Cc2c([nH]c3ccccc23)[C@H]2C[C@@H](NCc3cccnc3)C[C@@H](c3ccccc3)N21,–,active: 22.4 µM,–
O=C(C1C2C(=O)N(C3CCCCCC3)C[C@@]23C=C[C@@H]1O3)N1CCS(=O)(=O)CC1 (some centres not stated),–,–,inactive: -13.7%
CC(C)n1cc(CN2CCCN(S(=O)(=O)c3ccccc3)CCC(=O)NCC2)c2ccccc21,–,"inconclusive: 50.1 µM [inhibitor, partial curve, poor fit]",–
Cc1nc(C)c(C(=O)N2CCC(N3C(=O)C4(CCCCC4)C3c3ccccc3)CC2)s1 (configuration not stated),–,"inconclusive: 50.1 µM [inhibitor, partial curve, poor fit]",–
COc1cccc(CC2(CO)CCCN(c3nnnn3-c3ccccc3)C2)c1 (configuration not stated),–,"inconclusive: 56.2 µM [inhibitor, partial curve, poor fit]",–
COc1ccc(C2Cn3nnc(-c4nc(-c5ccc(SC)cc5)no4)c3CO2)cc1 (configuration not stated),–,"inconclusive: 56.2 µM [inhibitor, partial curve, poor fit]",–
CC(C)[C@@H]1CN(C(=O)c2cc(N3CCCCC3)ccc2Cl)C[C@H]1N(C)C,–,active: 39.8 µM,–
C#CCNC(=O)C[C@@H]1c2nc(NC(=O)N3CCOCC3)sc2C[C@@H]2[C@](C)(CO)[C@H](O)CC[C@]21C,–,–,inactive: -6.32%
CS(=O)(=O)N1CCCC(C(=O)NC2CCCC2)CCNC(=O)CC1 (configuration not stated),inactive,–,–
COCCc1nncn1C1CCN(S(=O)(=O)c2ccc(OC)cc2)CC1,–,–,inactive: 4.2%
Cc1ccc(C)c(-c2ccc(C(=O)NCCCn3ccnc3C(C)C)cn2)c1,–,"inconclusive: 39.8 µM [inhibitor, full curve, poor fit]",–
O=C(c1cccs1)N1CCCN(c2cc(-c3ccc(F)cc3)[nH]n2)CC1,–,"inconclusive: 70.8 µM [inhibitor, single point]",–
CN1Cc2ccc(NCc3ccccc3)nc2C(C)(C(=O)Nc2ccccc2)C1 (configuration not stated),–,active: 63.1 µM,–
Clc1ccccc1CNC[C@H]1Cn2ccnc2CO1,–,–,inactive: -19.6% [at 230 µM]
COCc1ncc(C)n1C1CCCN(C(=O)c2ccoc2)C1 (configuration not stated),–,–,inactive: -8.61%
COc1ccccc1N1CCCc2ncc(C(=O)Nc3cccc(F)c3)cc21,–,"inconclusive: 100 µM [inhibitor, partial curve, poor fit]",–
CN1CCC2(C1)CN(CC1CC1)c1ccc(C(=O)NCC3CC3)cc12 (configuration not stated),–,"inconclusive: 56.2 µM [inhibitor, full curve]",–
CC(C)CNC(=O)N1CCCC(c2noc(COc3ccccc3)n2)C1 (configuration not stated),–,"inconclusive: 50.1 µM [inhibitor, partial curve, poor fit]",–

SMILES,outcome,Potency,"activity change, negative = cytotoxicity"
CC(=O)NC1(C)CCN(Cc2cnc(-c3ccccc3OCc3ccccc3)s2)CC1,–,"inconclusive: 70.8 µM [inhibitor, partial curve, poor fit]",–
O=C(Nc1ccc(Cl)nc1)c1ccc2cc[nH]c2n1,–,"inconclusive: 126 µM [inhibitor, single point]",–
Cc1nn(-c2ccc(C(C)(C)C)cc2)c(C)c1[C@@H]1C=C[C@@H](NC(=O)c2cccs2)C1,–,active: 35.5 µM,–
CN(C)C[C@@H]1CN(c2ncccn2)C[C@H]1NC(=O)c1cc2ccccc2[nH]1,–,–,inactive: -1.88%
CN1C(=O)[C@H]2CN(Cc3ccccc3Cl)C[C@H]2C1=O,–,–,inactive: -5.39%
Cc1ccc(CNC(=O)C(C)C2CCOCC2)cc1 (configuration not stated),–,–,inactive: 5.48%
O=C1c2c(nc(CN3CCN(c4ccccn4)CC3)n2Cc2ccccc2)NCCN1CC1CC1,–,"inconclusive: 50.1 µM [inhibitor, partial curve, poor fit]",–
COc1ccccc1CCC(=O)N(C)C1CCc2nn(C)c(=O)n2CC1 (configuration not stated),inactive,–,–
O=C1Nc2ccc(-c3ccccc3F)cc2C(=O)N2CCN(C(=O)c3ccco3)C[C@@H]12,–,"inconclusive: 100 µM [inhibitor, partial curve]",–
CCN(CC)C(=O)c1csc(N2CCN(c3cccc(Cl)c3)CC2)n1,–,"inconclusive: 28.2 µM [inhibitor, partial curve, poor fit]",–
Cc1noc(C)c1Cc1ccc(C(=O)N2CCC(c3nc(C(=O)N4CCCC4)c(C)o3)CC2)o1,–,"inconclusive: 56.2 µM [inhibitor, partial curve, poor fit]",–
Cc1ccccc1C(=O)N1CCCC(C(=O)N2CCC(c3nc4ncccc4[nH]3)C2)C1 (configuration not stated),–,–,inactive: -2.54%
CCCn1nc(C)c(-c2cc(C(=O)N3CCCCC3c3noc(COCC4CC4)n3)[nH]n2)c1C (configuration not stated),–,"inconclusive: 35.5 µM [inhibitor, partial curve, poor fit]",–
O=C(NCCc1ccc(F)cc1)C1CN(C2CCCC2)C(=O)N1 (configuration not stated),inactive [at 172 µM],–,–
COc1cc(OC)cc(C(=O)N2CCC3(CC2)NC(=O)N(Cc2ccc(F)cc2)C3=O)c1,–,"inconclusive: 70.8 µM [inhibitor, single point]",–
COC(=O)[C@@H]1Cc2ncn(Cc3ccc(Cl)cc3)c2CN1Cc1cccc(C#N)c1,–,active: 63.1 µM,–
COc1ccc(C(=O)NCCNC(=O)c2cccc(-c3ccc(SC)cc3)c2)cc1,–,"inconclusive: 56.2 µM [inhibitor, partial curve, poor fit]",–
Cc1ccccc1CN1CCc2nc(C(=O)NCc3ccncc3)oc2CC1,–,"inconclusive: 56.2 µM [inhibitor, partial curve, poor fit]",–
O=C(NC1CCCC1)N1CCCC(Cc2nncn2Cc2ccccc2)C1 (configuration not stated),inactive,–,–
O=[S+]([O-])(NC1CCCN(c2ccc3nnc(C4CC4)n3n2)C1)c1cccs1 (configuration not stated),–,"inconclusive: 50.1 µM [inhibitor, partial curve, poor fit]",–
COc1ccc2nc3n(c2c1)[C@@H](CNS(=O)(=O)c1ccccc1)COC3,–,"inconclusive: 112 µM [inhibitor, partial curve, poor fit]",–
COc1cc(-c2onc(C)c2C(=O)NCc2cccc(F)c2F)cc(OC)c1OC,–,"inconclusive: 31.6 µM [inhibitor, partial curve, poor fit]",–
COc1cc(-c2cc(C)c3c(OC)ccc(OC)c3n2)cc2c1OCCNC2,–,"inconclusive: 39.8 µM [inhibitor, full curve, poor fit]",–

SMILES,outcome,Potency,"activity change, negative = cytotoxicity"
Cc1ccc(CNC(=O)c2ccc3c(c2)CN(Cc2ccc(N(C)C)cc2)CCO3)cc1,–,"inconclusive: 50.1 µM [inhibitor, partial curve, poor fit]",–
CC(C)CCN1CCC2(Cc3ccccc3NC2=O)C1 (configuration not stated),–,"inconclusive: 126 µM [inhibitor, single point]",–
COc1ccccc1CN1CCc2ncc(C(=O)Nc3ccccc3)n2CC1,–,"inconclusive: 100 µM [inhibitor, partial curve, poor fit]",–
O=C1NC(=NC2CCCCC2)C2(CCN(Cc3cccnc3)C2)N1c1cc(F)cc(F)c1 (configuration not stated),–,–,inactive: -11%
N#Cc1ccc(C(=O)N2CCCC(n3cc(-c4nc(-c5ccccc5)no4)nn3)C2)cc1 (configuration not stated),–,"inconclusive: 50.1 µM [inhibitor, partial curve, poor fit]",–
COc1ccc(C(=O)N2CCCN(c3cc(-c4ccc(Cl)cc4)[nH]n3)CC2)c(C)c1,–,active: 50.1 µM,–
COC(=O)c1ccc(NC(=O)N2CCC(CCOc3ccc(F)cc3)C2)cc1 (configuration not stated),–,"inconclusive: 20 µM [inhibitor, full curve, poor fit]",–
Cc1ccc(Nc2ccnc(N3CCCC3C(=O)N3CCC(C#N)CC3)n2)cc1 (configuration not stated),–,"inconclusive: 89.1 µM [inhibitor, single point]",–
CC1(c2noc(-c3ccccn3)n2)CCN(C(=O)CCC(=O)N2CC(=O)Nc3ccccc32)CC1,–,–,inactive: 11.2%
COc1ccc(C)cc1C(=O)N1CCc2onc(-c3ccccc3F)c2C1,–,active: 28.2 µM,–
O=C(c1ccc(Cl)nc1)N1CCC(C(=O)N2CCC(c3nc4ncccc4[nH]3)CC2)CC1,–,–,inactive: 2.2%
O=C(NCc1ccncc1)c1coc(CN2CCN(C/C=C/c3ccccc3)CC2)n1,–,"inconclusive: 39.8 µM [inhibitor, full curve, poor fit]",–
Cc1nn(C)c(C)c1CCC(=O)N1CC[C@](C)(O)[C@@H](O)C1,–,–,inactive: -0.629%
CN(C(=O)c1cc2ccccc2n1C)C1CCCN(C2Cc3ccccc3C2)C1 (configuration not stated),–,"inconclusive: 22.4 µM [inhibitor, full curve, poor fit]",–
COc1ccc2[nH]cc(CCNC(=O)CCC[C@H]3NC[C@@H]4C[C@H]3CN(Cc3ccccc3)C4)c2c1,–,–,inactive: -22.5%
C#CCNC(=O)c1nc(-c2ccccc2OC)c2ccccn12,–,–,inactive: -4.13%
Cc1cc(-c2cc3c(cn2)CN(Cc2ccc4[nH]ccc4c2)CCN3)ccn1,–,active: 70.8 µM,–
Cc1ccccc1C(=O)N1CCCN(c2nnc3ccc(Cl)cn23)CC1,–,–,inactive: -15.9%
COCCN1CCCC2(CCN(C(=O)c3oc4cc(C)ccc4c3C)C2)C1=O (configuration not stated),–,"inconclusive: 50.1 µM [inhibitor, partial curve, poor fit]",–
CCn1ccc(C(=O)N2[C@@H]3CC[C@H]2CC(NC(=O)c2ccc(F)cc2)C3)n1 (some centres not stated),–,–,inactive: -8.92%
CC(=O)NC1(C)CN(Cc2ccc(-c3cccc(F)c3)s2)C1,–,"inconclusive: 100 µM [inhibitor, partial curve, poor fit]",–
